Results as given in the supplement of paper PMC9446081.
The whole screen tested about 39,000 compounds, of which about 220 (0.56%) showed activity. The list shows a part of the results.
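Note: static incubation at 37 °C against the wild-type strain, values averaged over two biological replicates.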

The molecules below were run on Escherichia coli K-12 BW25113 (assay: relative growth (OD600 normalised to plate interquartile mean) (fraction); higher = less growth inhibition, active = 0.2 or less). Details: 50 µM; LB; incubation time: overnight (16-24 h).
`C[C@@H]1CN([C@@H](C)CO)C(=O)c2cc(NC(=O)Nc3ccc(C(F)(F)F)cc3)ccc2O[C@@H](C)CCCCO[C@@H]1CN(C)S(=O)(=O)c1cccs1` was tested, and the relative growth was inactive: 1.04.
For `O=C(O)[C@@H](O)c1ccccc1`, the relative growth was inactive: 0.971.
With `O=C(CN1CCOCC1)NCC[C@@H]1CC[C@@H](NC(=O)c2ccc3c(c2)OCO3)[C@@H](CO)O1` the relative growth was inactive: 0.997.
In the case of `C[C@@H]1CCCCO[C@H](CN(C)S(C)(=O)=O)[C@@H](C)CN([C@@H](C)CO)C(=O)c2cc(NC(=O)CCCN(C)C)ccc2O1`, the relative growth is reported as inactive: 1.01.
`C[C@H](CO)N1C[C@H](C)[C@@H](CN(C)Cc2ccc(C(=O)Nc3ccccc3N)cc2)Oc2ccc(NC(=O)Nc3ccc(F)cc3)cc2C1=O` was tested, and the relative growth was inactive: 0.994.
In the case of `COc1ccc(S(=O)(=O)Nc2cccc3c2O[C@@H](CN(C)Cc2ccc(-c4ccccc4)cc2)[C@H](C)CN([C@H](C)CO)C3=O)cc1`, the relative growth is reported as inactive: 1.02.
`C[C@H](CO)N1C[C@H](C)[C@H](CN(C)Cc2ccncc2)OCCCC[C@H](C)Oc2ccc(NS(=O)(=O)c3ccc(Cl)cc3)cc2C1=O` was tested, and the relative growth was inactive: 0.995.
`O=C(C[C@H]1CC[C@@H]2[C@H](COC[C@@H](O)CN2S(=O)(=O)c2ccccc2)O1)NCc1ccc(-c2ccccc2)cc1` was tested, and the relative growth was inactive: 0.953.
For `C[C@@H]1CN([C@H](C)CO)S(=O)(=O)c2ccc(-c3cncnc3)cc2O[C@@H]1CN(C)C(=O)c1ccc2c(c1)OCO2`, the relative growth was inactive: 1.01.
With `Cc1cc(C(=O)Nc2cccc3c2O[C@@H](CN(C)Cc2ccc(C(=O)O)cc2)[C@H](C)CN([C@H](C)CO)C3=O)n(C)n1` the relative growth was inactive: 1.06.
For `C[C@@H]1CCCCO[C@H](CN(C)S(=O)(=O)c2ccc(F)cc2)[C@@H](C)CN([C@H](C)CO)C(=O)c2cc(NC(=O)Nc3ccc(C(F)(F)F)cc3)ccc2O1`, the relative growth was inactive: 1.02.
`C[C@@H]1CN([C@@H](C)CO)C(=O)c2c(c3ccccc3n2C)-c2ccccc2CO[C@H]1CN(C)Cc1ccccc1C(F)(F)F` was tested, and the relative growth was inactive: 1.06.
`CC(=O)OCCNC(=O)c1cccnc1` was tested, and the relative growth was inactive: 0.979.
For `CO[C@@H]1CN(C)C(=O)c2ccc(NC(=O)Nc3cccc(F)c3)cc2OC[C@@H](C)N(C(=O)Nc2c(C)noc2C)C[C@H]1C`, the relative growth was inactive: 0.957.
With `O=C(O)C=C(CC(=O)O)C(=O)O` the relative growth was inactive: 1.06.
In the case of `C=CCCCCCCCCC=O`, the relative growth is reported as inactive: 0.93.
`CCC(Cc1c(I)cc(I)c(N)c1I)C(=O)O` (centres undefined) was tested, and the relative growth was inactive: 0.832.
For `C[C@@H]1CCCCO[C@@H](CN(C)Cc2ccccc2)[C@@H](C)CN([C@H](C)CO)C(=O)c2cc(NC(=O)C3CCCCC3)ccc2O1`, the relative growth was inactive: 0.989.
For `C[C@H](CO)N1C[C@H](C)[C@H](CN(C)S(=O)(=O)c2cn(C)cn2)Oc2ccc(NC(=O)CCC(F)(F)F)cc2CC1=O`, the relative growth was inactive: 1.
`COc1ccc(CN(C)C[C@H]2OCCCC[C@H](C)Oc3ccc(NS(=O)(=O)c4ccc(F)cc4)cc3C(=O)N([C@@H](C)CO)C[C@H]2C)cc1` was tested, and the relative growth was inactive: 0.99.
`Cc1nc(CO)co1` was tested, and the relative growth was inactive: 0.963.
`C[C@@H]1CN([C@H](C)CO)C(=O)c2cc(NS(=O)(=O)c3ccccc3)ccc2O[C@@H]1CN(C)Cc1ccncc1` was tested, and the relative growth was inactive: 0.983.
`C[C@@H]1CN([C@H](C)CO)C(=O)c2cc(NS(=O)(=O)c3cn(C)cn3)ccc2O[C@@H]1CN(C)S(=O)(=O)c1cn(C)cn1` was tested, and the relative growth was inactive: 1.02.
For `CC(C)(C)Nc1nc(=O)[nH]c(=O)[nH]1`, the relative growth was inactive: 1.01.
In the case of `Cc1cccc2[nH]c(CN)nc12`, the relative growth is reported as inactive: 1.01.
In the case of `C[C@H](CO)N1C[C@H](C)[C@H](CN(C)S(=O)(=O)c2cn(C)cn2)Oc2ccc(NC(=O)Cc3cn(C)c4ccccc34)cc2C1=O`, the relative growth is reported as inactive: 0.991.
`C[C@@H]1CN([C@@H](C)CO)C(=O)c2cc(C#CCN(C)C)cnc2O[C@@H]1CN(C)S(C)(=O)=O` was tested, and the relative growth was inactive: 0.981.
In the case of `C[C@H](CO)N1C[C@H](C)[C@H](CN(C)Cc2ccc(C(=O)Nc3ccccc3N)cc2)OCc2cn(nn2)CCCC1=O`, the relative growth is reported as inactive: 1.01.
`O=C(NCCN1CCOCC1)[C@@H]1c2ccccc2C(=O)N(Cc2cc(C(F)(F)F)cc(C(F)(F)F)c2)[C@H]1c1ccc(CO)cc1` was tested, and the relative growth was inactive: 0.993.
`Cc1noc(C)c1S(=O)(=O)Nc1ccc2c(c1)C(=O)N([C@H](C)CO)C[C@H](C)[C@@H](CN(C)Cc1ccccc1)OCCCC[C@H](C)O2` was tested, and the relative growth was inactive: 1.
`COc1ccc(CN(C)C[C@@H]2Oc3ccc(NC(=O)CCCN(C)C)cc3C(=O)N([C@H](C)CO)C[C@H]2C)cc1` was tested, and the relative growth was inactive: 0.999.
`C[C@@H]1CCCCO[C@H](CN(C)Cc2ccccc2)[C@@H](C)CN([C@H](C)CO)C(=O)c2cc(NC(=O)c3ccncc3)ccc2O1` was tested, and the relative growth was inactive: 0.999.
For `C[C@H]1CCCCO[C@@H](CN(C)C(=O)CCC(F)(F)F)[C@@H](C)CN([C@@H](C)CO)C(=O)c2cc(NC(=O)NC3CCCCC3)ccc2O1`, the relative growth was inactive: 1.02.
With `Cc1ccc(S(=O)(=O)Nc2ccc3c(c2)C(=O)N([C@@H](C)CO)C[C@H](C)[C@@H](CN(C)C(=O)Nc2cccc4ccccc24)O3)cc1` the relative growth was inactive: 0.998.
With `COc1ccc(CN(C)C[C@H]2OCCCC[C@@H](C)Oc3ccc(NC(=O)Nc4cccc5ccccc45)cc3C(=O)N([C@H](C)CO)C[C@H]2C)cc1` the relative growth was inactive: 1.03.
`C[C@@H]1CN([C@@H](C)CO)C(=O)c2cc(NC(=O)CCN3CCOCC3)ccc2O[C@H]1CN(C)Cc1ccc(C(=O)O)cc1` was tested, and the relative growth was inactive: 1.02.
For `C[C@@H]1CCCCO[C@@H](CN(C)C(=O)Nc2ccc3c(c2)OCO3)[C@H](C)CN([C@@H](C)CO)C(=O)c2cc(NC(=O)Nc3ccc4c(c3)OCO4)ccc2O1`, the relative growth was inactive: 1.03.
With `C[C@H](CO)N1C[C@H](C)[C@@H](CN(C)C(=O)NC2CCCCC2)OCCCC[C@H](C)Oc2ccc(NC(=O)Nc3ccc4c(c3)OCO4)cc2C1=O` the relative growth was inactive: 0.988.
In the case of `COc1ccc(NC(=O)N(C)C[C@H]2OCCCC[C@H](C)Oc3ccc(NC(=O)NC(C)C)cc3C(=O)N([C@H](C)CO)C[C@@H]2C)cc1`, the relative growth is reported as inactive: 1.01.
